# Test results from article PMC12136788.
# The other results are listed elsewhere or left out.
# T1: UNK ZnF1-3 (human, UniProt Q9C0B0 31-174)
# T1 sequence: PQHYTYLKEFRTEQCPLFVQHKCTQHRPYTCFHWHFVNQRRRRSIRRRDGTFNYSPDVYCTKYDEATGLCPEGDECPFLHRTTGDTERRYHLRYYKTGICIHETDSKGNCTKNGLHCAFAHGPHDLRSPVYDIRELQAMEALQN
# B1: chr2:230668852:230668853:-_ENSG00000153827_ENST00000389045|hu_mus|FALSE|FALSE (ssRNA)
# RNA: GGGAGUUCUACAGUCCGACGAUCUAUCCUAAGAAUUGCUCUAAGGCACUUGUGUCUGACCGCAGGGCCUGCUGAGGAGCUGUACACUUCAUAGAGAACACCAAACAAGGUCUUAAUGAAAGACUUAGCCAGUUCCGGAUCUUCCAACAGAGGAUUGAGCAUCA
# B2: chr18:2804189:2804190:+_ENSG00000101596_ENST00000320876|hu_hu|motif|central (ssRNA)
# RNA: GGGAGUUCUACAGUCCGACGAUCCAAUGCCUUGGAUUUAAAACAUGACUCCUUCUUGAUACAAUGAAUUAUAAAAGCAAACGGGUUCCACAUAUUAAUUAUACGUUCAAGUCUAGUUCCUAAAAAGUCAUUUCUCUUUAACCUCAACAGAGGAUUGAGCAUCA
# B3: chr8:89189611:89189612:+_ENSMUSG00000047866_ENSMUST00000034141|mus_mus|FALSE|FALSE (ssRNA)
# RNA: GGGAGUUCUACAGUCCGACGAUCGAAAAGAACUUGGGAAAGGUCAAAGGCCACAUUUAGAUAGUGAUCUGUGAAGUUAUGGUUUUGUUCAGGAUCCAACACCUCAAGCAGCGCAGCUGCAGGAUCCCCCUGCAGGCUUUUCCCCAACAGAGGAUUGAGCAUCA
# B4: chr1:201932794:201932795:+_ENSG00000134375_ENST00000367287|hu_hu|motif|central (ssRNA)
# RNA: GGGAGUUCUACAGUCCGACGAUCUAAGGCACCACUUGUGAUGGAGUUCCAGGGAUCUUCCUUUCCUCUGACUUGAACCAUACGGCAGUCAAUCAUGGAAAACAGCCCUCCCCAAACUGCAAAGCUACCUCCUAACUGUGGAGCCAACAGAGGAUUGAGCAUCA
# B5: chr3:41280641:41280642:+_ENSG00000168036_ENST00000349496|hu_hu|FALSE|FALSE (ssRNA)
# RNA: GGGAGUUCUACAGUCCGACGAUCCAUGGGGUCCAUACCCAAGGCAUCCUGGCCAUAUCCACCAGAGUGAAAAGAACGAUAGCUAGGAUCAUCCUGGCGAUAUCCAAGGGGUUCUCCCUGGGCACCAAUAUCAAGUCCAAGAUCCAACAGAGGAUUGAGCAUCA
# B6: 37400315_37400435_1777_CDS_ENSG00000101442_ENST00000243903|human|control|control (ssRNA)
# RNA: GGGAGUUCUACAGUCCGACGAUCUCCACCAGCAGCGGAGCCCUUGCUGGAUGCCUGGGCAUCUGAGGAGCGGGAGGCCUGCUUCGGCAGGCGGAUGGGGACAUAGAUGUUGGAAGCACAGUGCUCCUUGAGGUACUCUCCUCCCAACAGAGGAUUGAGCAUCA
# B7: chr17:55917276:55917277:-_ENSG00000181610_ENST00000313608|hu_hu|motif|central (ssRNA)
# RNA: GGGAGUUCUACAGUCCGACGAUCGUUUUCUUCCAACGCAGUCUGUGGUCUGACACUCAAGUGUUCGGAUUUCCGGGAAACGUGACGGCCUCCGUGUUGAGUCCUUGCUUCGCCUACUCGUCUUAAAAUGACACCUUCUGCCAACAACAGAGGAUUGAGCAUCA
# B8: chr16:94664741:94664742:+_ENSMUSG00000040785_ENSMUST00000117648|mus_hu|mus_mus_mus_hu_False|8_58 (ssRNA)
# RNA: GGGAGUUCUACAGUCCGACGAUCUGGUACUGAUCUUGGUAGCUGAUAUUCAGGAGAAAGGCUGGCCAAGGGUGUAUAAAUGCUAGUGUACUGGGGCAAACCUGGUAACACGUUUAUGUAUGCUGGCCGCUGGGUGAUGAUAUCCAACAGAGGAUUGAGCAUCA
# B9: chr17:64801638:64801639:+_ENSG00000154229_ENST00000413366|hu_mus|hu_hu_hu_mus_False|38_88 (ssRNA)
# RNA: GGGAGUUCUACAGUCCGACGAUCUAUAUAUAUAUAUACAUAUGUACACAUAUGUAGUAAAACCCUAGUUAAACGUGUAAAGUAGCCAUUCAUUUUUGAAAUUUUAUCUACAUUAAAAAAUUAAUAUAUCUGAUAGAGUGCCAGCAACAGAGGAUUGAGCAUCA
# B10: chr5:143131892:143131893:+_ENSMUSG00000029578_ENSMUST00000036872|mus_hu|FALSE|FALSE (ssRNA)
# RNA: GGGAGUUCUACAGUCCGACGAUCCAGAAUCGUGUUGGAGUAGCUGUAGUUGCAGAUCUCAGUUCCCUUCUUAAAGUGGCAAACCUUUAGCUUCCUUGGUGCUUUAAGGCUGACGAUGGCCACUAGGCUGCUGGAGAACAAUCUCAACAGAGGAUUGAGCAUCA
# B11: chr17:57816259:57816260:+_ENSG00000062716_ENST00000262291|hu_mus|FALSE|FALSE (ssRNA)
# RNA: GGGAGUUCUACAGUCCGACGAUCCAGAUAAAGCAGAAAGGUGUGCAGUCCUGUUCCAAGACCAACAGAGGACAAAAUCCCCAGGCCUAUCCAGUAUGCAUACAAAAGAAACUGCUUCUCUAUCCGCUGCACAUACUGUUGGUGCAACAGAGGAUUGAGCAUCA
# B12: chr20:21346065:21346066:+_ENSG00000088930_ENST00000377191|hu_mus|FALSE|FALSE (ssRNA)
# RNA: GGGAGUUCUACAGUCCGACGAUCUCCUGGAAGCAUUGCAGCUUUAAAAACAUAAUCUUCAGCAAACUGUGGAUCUUUAAAAUUAAUACUGACUGCAGUGUUCUGUGUCAGGUCCCGCAACAUGGGCACAGGGGAACAUACUGUCAACAGAGGAUUGAGCAUCA
# B13: chr5:174939138:174939139:+_ENSG00000164466_ENST00000321442|hu_hu|FALSE|FALSE (ssRNA)
# RNA: GGGAGUUCUACAGUCCGACGAUCGCCAACUUUGAGUUCCCUUUGCCUCAUUAAUGGAAUAUUAAUGCAAUUAGCAGCAGCUACGGCAGCAAAGGGAACAAAACGUCCUAUCAGUGGUGAGACAUGCUUGGUCAAUGCAUUGAGCAACAGAGGAUUGAGCAUCA
# B14: 242203985_242206293_344_CDS_ENSG00000115677_ENST00000391976|human|control|control (ssRNA)
# RNA: GGGAGUUCUACAGUCCGACGAUCAGGGUCGCUCUCCUCUUCUGAAUUUAGAGUGGCAACUUUGAUUUGUUGCGGAACCAGCCCACUUCGGUGUUCAGCAAAACUCUCUUGGGUCAAAACUGCAACGGAACUCAUGGUUGAUCUCAACAGAGGAUUGAGCAUCA
# B15: chr4:54294246:54294247:+_ENSG00000145216_ENST00000306932|hu_mus|FALSE|FALSE (ssRNA)
# RNA: GGGAGUUCUACAGUCCGACGAUCUGGAGGAGGAGGAAGGUGAGUAGGAGGAGCCCCUGGAGGGAAAAAUGGAGGUGGUUUGCUGAAAUUGUUGUCUACUUCAGUGGCAGAUCUGUCAGAAAGGACCUGUAUAUUGCUGUUCUCCAACAGAGGAUUGAGCAUCA
# B16: 29183081_29183201_1843_3pUTR_ENSG00000159873_ENST00000249064|human|control|control (ssRNA)
# RNA: GGGAGUUCUACAGUCCGACGAUCGGGGGAAAAAAAAAAAAACUUGCUAAUACAAGUAUAACUUUUUAAAAAAAUUACCAAAGUUAUCAAUGUUGGGUUUAGCUGAUAAAGCACUUCCUUAAGAUGAACUAAAGGAUGCUUCUCCAACAGAGGAUUGAGCAUCA
# B17: chr9:96305504:96305505:+_ENSG00000048828_ENST00000277165|hu_hu|FALSE|FALSE (ssRNA)
# RNA: GGGAGUUCUACAGUCCGACGAUCAGCUGCCCAUUCUUUAAUGAUCACUGGUGAAAAUUCUGGUGGAAGUCUGUUCUUUCUAAAAGCAAGUCUCUCAGUUUUCUUUCUGCUUUCUGCCAAACUAAACAGGACUCCGUAAACAUACAACAGAGGAUUGAGCAUCA
# B18: chr14:21319760:21319761:-_ENSMUSG00000021816_ENSMUST00000161445|mus_hu|FALSE|FALSE (ssRNA)
# RNA: GGGAGUUCUACAGUCCGACGAUCAGCCAGCAGCAAAUCACCCUGGUGGCUCUCUAAGCAACUUGAGUACUCACAAUAAACUAAAAUUUCUCAUAACAUCUAGGUAACCUAUACAUGUCGUACCUGUACAUCAUAGGUCUAUAUCAACAGAGGAUUGAGCAUCA
# B19: chrX:17831648:17831649:+_ENSMUSG00000037369_ENSMUST00000044484|mus_hu|FALSE|FALSE (ssRNA)
# RNA: GGGAGUUCUACAGUCCGACGAUCAGUGGAUUUUGGAGAAGGUGUUGCUGUUGAAAUGGCUGAAGAUGGUGAAGAGGCAACAGAGUUAUCAGUCUUUGUAUGAACAGCUGGGUGGAUGUUAUUGACUUUGUCACAGGUUCCAGUCAACAGAGGAUUGAGCAUCA
# B20: chrX:51638331:51638332:+_ENSG00000179222_ENST00000326587|hu_mus|FALSE|FALSE (ssRNA)
# RNA: GGGAGUUCUACAGUCCGACGAUCACGUGCCUGAGAGUAAUCAUUUGGCCCCUUUGUGGUGGCAUUCUGGGCCUUAAAGCCUGUCUUAGGCCUGGCAGCAGCUGCUGAAACCUCAGUAUCAGCCUUCUCAUUGGCAGUUGGGGGCAACAGAGGAUUGAGCAUCA
# B21: 73678298_73680048_964_CDS_ENSMUSG00000022105_ENSMUST00000022701|mouse|control|control (ssRNA)
# RNA: GGGAGUUCUACAGUCCGACGAUCCUCAUCUAUAUUACACUCGUGUUCUUUACAGAGAACCUCGAUAAUCCUCGUAUCAUUUUCUAGUUGUUUUGCUAUCCGAGCGCUCCUGUUCUGACCUCUUCUGGGUGUUCGAGGUGAACCCAACAGAGGAUUGAGCAUCA
# B22: 111650908_111652965_8090_CDS_ENSG00000009413_ENST00000368805|human|control|control (ssRNA)
# RNA: GGGAGUUCUACAGUCCGACGAUCCAUUCUUGGUAGUACACCUUUUCUUACUGAAGGCUUGACAAAAGCUACUCCAUUGGGGGACACUGUGAUAUCAUGCCUAACUUGGUAAAGUAAAUCUGGAGGUACUCUCAGAGAGGUACACAACAGAGGAUUGAGCAUCA
# Molecular target: T1, UNK ZnF1-3
# Assay: nsRBNS (natural sequence RNA bind-n-seq); RBNS binding buffer (assumed for nsRBNS): 25 mM Tris pH 7.5, 150 mM KCl, 3 mM MgCl2, 0.01% Triton X-100, 500 ug/ml BSA, 20 U/ml SUPERase-In, 4 C; UNK is unkempt and MSI1 is Musashi-1; names of the RNAs are library labels; protein concentration not given here; high values mean tight binding
row,Binder,binding signal [enrichment R]
1,B1,0.787
2,B2,1.11
3,B3,0.867
4,B4,1.15
5,B5,0.891
6,B6,0.843
7,B7,0.504
8,B8,1.04
9,B9,2.56
10,B10,0.743
11,B11,0.939
12,B12,1.4
13,B13,0.695
14,B14,0.812
15,B15,1.94
16,B16,1.02
17,B17,1.77
18,B18,1.16
19,B19,1.47
20,B20,0.913
21,B21,0.27
22,B22,0.876
